Hit rate of the full screen: of about 50,000 compounds, about 800 (1.6%) showed an effect of 50% or more. The list shows a part of the results.
These molecules were tested against Bcl-2-like protein 10 (Homo sapiens) (UniProt Q9HD36) (assay: Phenotype converters, Bcl-B/TR3 peptide binding displacement, primary biochemical FP (AID 1240;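 note: 0% = Bcl-B with tracer peptide and DMSO and 100% = tracer peptide lacking Bcl-B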)). Conditions: GST-Bcl-B / FITC-TR3 peptide fluorescence polarization; stronger effect = higher value; compound at 3.75 mg/L.
Sequence of UniProt Q9HD36 (Q9HD36 whole entry, looked up): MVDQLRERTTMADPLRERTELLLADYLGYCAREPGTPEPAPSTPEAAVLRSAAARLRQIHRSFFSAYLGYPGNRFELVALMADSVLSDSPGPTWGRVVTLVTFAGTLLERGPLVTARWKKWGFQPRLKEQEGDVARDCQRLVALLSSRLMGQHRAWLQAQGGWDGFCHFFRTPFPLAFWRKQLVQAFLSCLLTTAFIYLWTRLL

Row | SMILES | displacement
1 | Cc1[nH]c2ccccc2c1/C=N/Nc1ccc([N+](=O)[O-])cc1 | -23.3%
2 | COc1ccc(CN2CCN(Cc3cccn3C)CC2)c(OC)c1OC | 5.4%
3 | O=C(Nc1ccc(Cl)cn1)S(=O)(=O)c1ccccc1 | 8.3%
4 | Cc1cccc(OCC(=O)O/N=C(\N)Cc2cccc3ccccc23)c1 | 45.6%
5 | O=C(N/N=C/c1cccc([N+](=O)[O-])c1)C(Oc1ccccc1)Oc1ccccc1 | 11.1%
6 | Cc1cc(C)c(S(=O)(=O)NCc2ccc3c(c2)OCO3)c(C)c1 | -5.9%
7 | O=C(CCn1c2ccccc2c2ccccc21)N/N=C/c1ccccc1 | 6.9%
8 | Cc1ccc(NC(=O)c2cccc(F)c2)c(C)c1 | 10.4%
9 | O=C1C(=O)N(c2cccnc2)C(c2ccc3c(c2)OCO3)/C1=C(\O)c1ccc(Cl)cc1 (stereo not drawn) | -18.1%
10 | O=C(COc1ccccc1)Nc1ccc(Cl)c(-c2nc3ccccc3s2)c1 | 15.4%
11 | COc1cc(CN=Cc2c(O)n(-c3cc(OC)ccc3OC)c(=O)[nH]c2=O)cc(OC)c1 | 1.6%
12 | CC1=C(C(=O)OCc2ccccc2)C(c2cccc(F)c2)C2=C(CCCC2=O)N1 (stereo not drawn) | 6.3%
13 | Cc1ccccc1CN1CCN(C2CCCC2)CC1 | -23.3%
14 | CCOc1ccccc1NC(=O)c1c(NC(=O)c2ccccc2F)sc2c1CCCC2 | -2.4%
15 | Cc1ccc(OCC(=O)O/N=C(\N)c2ccc([N+](=O)[O-])cc2)cc1 | 12.4%
16 | O=C(NCCCCc1ccccc1)C1CC(=O)N(c2ccc(Br)cc2)C1 (stereo not drawn) | 1.1%
17 | COc1cccc(N2C(=O)C(=O)/C(=C(\O)c3ccccc3)C2c2ccc(Cl)cc2)c1 (stereo not drawn) | 4.9%
18 | CC1(C)CC(=O)C2=C(C1)c1c(ccc3ccccc13)NC2c1cc2c(cc1Cl)OCO2 (stereo not drawn) | 10.5%
19 | CCOc1cc(/C=C2\SC(=S)NC2=O)ccc1OS(=O)(=O)c1ccc([N+](=O)[O-])cc1 | 10.8%
20 | COc1ccc(C2/C(=C(\O)c3ccccc3)C(=O)C(=O)N2CCCC(=O)O)cc1OC (stereo not drawn) | 1.7%
21 | CCOC(=O)COc1ccc(/C=C2/C(=O)NN(c3ccc(I)cc3)C2=O)cc1OC | 4%
22 | COc1ccc(Cl)cc1NC(=O)C1=C(C)NC(=S)NC1c1ccc([N+](=O)[O-])cc1 (stereo not drawn) | 1.2%
23 | CCOC(=O)c1c(NC(=O)c2ccc(OCC(C)C)cc2)sc2c1CC(C)(C)OC2 | -3.4%
24 | CCCCC(=O)Nc1ccc(C2C(=O)c3ccccc3C2=O)cc1 | -4.8%
25 | COc1ccc(N(CC(=O)Nc2ccccc2C)S(C)(=O)=O)cc1Cl | -10.4%
26 | O=C(Nc1ccccc1)Nc1ccc(S(=O)(=O)N2CCc3ccccc32)cc1 | -5.1%
27 | O=[N+]([O-])c1ccc(Cl)c(-n2ncnc2-c2ccccc2C(F)(F)F)c1 | -12%

Row | SMILES | displacement
28 | CCCCN(CCCC)S(=O)(=O)c1ccc(I)cc1 | 3.9%
29 | Cc1cccc(NC(=O)CSc2nc(C)cc(C)n2)c1 | -2.1%
30 | Cc1ccccc1C(=O)Nc1sc2c(c1C(=O)N1CCN(C)CC1)CCCCC2 | -11.3%
31 | CCOC(=O)CNC(c1ccccc1)c1cc(Br)ccc1N (stereo not drawn) | 16%
32 | C=CCN1C(=O)/C(=C\c2ccc(-c3cc(Cl)cc(Cl)c3)o2)SC1=S | 1.7%
33 | CCC(=O)N1N=C2c3cc(OC)ccc3CCC2C1c1ccc(N(C)C)cc1 (stereo not drawn) | 2.5%
34 | O=C(CN(Cc1ccccc1)S(=O)(=O)c1ccccc1)Nc1cccc2ccccc12 | 1.3%
35 | COC(=O)CCN1C(=O)/C(=C/c2ccc(Cl)cc2Cl)SC1=S | -2%
36 | COc1ccccc1-n1c(C=C2C(=O)N(C)c3ccccc32)nc2ccccc2c1=O | -10.8%
37 | O=C(Nc1nccs1)C1COc2ccccc2O1 (stereo not drawn) | -5.8%
38 | Cc1ccc2c(c1)c1c(n2C)C(=O)CCC1 | -0.7%
39 | CCC(CC)C(=O)Nc1ccc(OC)cc1[N+](=O)[O-] | 1.8%
40 | Clc1ccccc1C=NN1CCN(Cc2ccccc2Cl)CC1 | -2.4%
41 | O=C(Nc1ccc(-c2nc3ccccc3s2)c(O)c1)c1cc2ccccc2oc1=O | 5.3%
42 | CCOc1ccc(-c2nc3cc(NC(=O)c4ccccc4F)ccc3o2)cc1 | -3.2%
43 | CCc1ccc(/C(C)=N/Nc2cc(-c3ccccc3)nc(C)n2)cc1 | -8.4%
44 | COc1cc([N+](=O)[O-])ccc1-c1ccc(/C=C2\C(=O)NC(=O)N(c3ccccc3)C2=O)o1 | 132%
45 | O=C(CN1CCCCC1)Nc1nc2ccccc2s1 | -0.5%
46 | O=C(O)CCCCCN1C(=O)C(=O)/C(=C(/O)c2ccccc2)C1c1ccc(F)cc1 (stereo not drawn) | -9.8%
47 | CCCOC(=O)C1=C(C)NC2=C(C(=O)CCC2)C1c1ccc(Cl)cc1Cl (stereo not drawn) | -8.1%
48 | Fc1ccc(CSc2nc3ncccc3[nH]2)cc1 | 11.6%
49 | COc1cccc(OCCCNC(C)(C)C)c1 | -0.7%
50 | CCc1ccc2oc(-c3cccc(NC(=O)c4ccc(Br)o4)c3)nc2c1 | 6.3%
51 | O=C1NCC(c2ccccc2)C1C(=O)N/N=C\c1cc([N+](=O)[O-])cc(Br)c1O (stereo not drawn) | 5.6%
52 | COc1cc(/C=C2\SC(N3CCCC3)=NC2=O)cc(OC)c1OC | -15.6%
53 | CCCCOc1ccc(S(=O)(=O)N2CCN(C)CC2)cc1 | -1.5%
